About 2,200 (0.71%) of roughly 310,000 compounds showed an effect of 50% or more. The effect is printed as a negative number. The list shows a part of the results.
target: human ether-à-go-go-related gene (hERG) potassium channel (human, UniProt Q12809); assay: primary screen, population patch clamp on CHO cells stably expressing hERG
Sequence (Q12809 whole entry, looked up): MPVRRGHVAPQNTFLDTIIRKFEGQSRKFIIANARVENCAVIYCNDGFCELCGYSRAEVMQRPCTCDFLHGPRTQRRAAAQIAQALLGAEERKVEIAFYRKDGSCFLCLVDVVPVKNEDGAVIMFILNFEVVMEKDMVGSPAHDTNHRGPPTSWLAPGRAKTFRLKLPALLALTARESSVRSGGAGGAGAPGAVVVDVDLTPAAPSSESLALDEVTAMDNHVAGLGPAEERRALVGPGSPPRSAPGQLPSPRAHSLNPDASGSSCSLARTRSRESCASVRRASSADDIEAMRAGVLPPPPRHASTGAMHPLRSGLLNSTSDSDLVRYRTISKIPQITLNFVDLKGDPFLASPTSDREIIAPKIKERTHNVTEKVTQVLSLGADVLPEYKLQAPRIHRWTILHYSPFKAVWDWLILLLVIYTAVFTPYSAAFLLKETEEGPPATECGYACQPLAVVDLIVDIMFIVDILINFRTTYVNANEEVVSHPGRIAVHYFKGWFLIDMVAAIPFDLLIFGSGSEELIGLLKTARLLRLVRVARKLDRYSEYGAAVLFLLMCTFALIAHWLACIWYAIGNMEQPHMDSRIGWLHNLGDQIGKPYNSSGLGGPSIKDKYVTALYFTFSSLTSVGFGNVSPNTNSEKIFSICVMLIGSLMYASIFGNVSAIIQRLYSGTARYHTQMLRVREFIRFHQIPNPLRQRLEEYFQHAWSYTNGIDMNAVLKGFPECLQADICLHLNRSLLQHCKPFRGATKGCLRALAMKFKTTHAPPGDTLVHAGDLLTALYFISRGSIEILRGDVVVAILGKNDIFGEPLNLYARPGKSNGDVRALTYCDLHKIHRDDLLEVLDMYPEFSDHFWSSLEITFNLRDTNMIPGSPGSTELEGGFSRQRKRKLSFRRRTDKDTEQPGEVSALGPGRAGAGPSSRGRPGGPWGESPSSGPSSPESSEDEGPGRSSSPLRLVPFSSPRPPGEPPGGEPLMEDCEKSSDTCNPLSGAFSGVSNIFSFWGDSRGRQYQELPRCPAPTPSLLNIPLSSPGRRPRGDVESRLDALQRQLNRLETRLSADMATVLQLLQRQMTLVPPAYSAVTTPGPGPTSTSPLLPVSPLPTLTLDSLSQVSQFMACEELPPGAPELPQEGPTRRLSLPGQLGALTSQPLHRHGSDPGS

| SMILES | hERG current change (%, negative = inhibition) at 1uM [%] |
| --- | --- |
| Cc1nn(C)c(C(=O)NC(=S)Nc2ccccc2O)c1Cl | -1.47 |
| Cl.O=C(CN1CCN(C(=O)c2cccc(F)c2)CC1)NC1CCCCC1 | 13.4 |
| COc1cc(NC(=O)C(C)Oc2ccccc2)ccc1NC(=O)COc1ccccc1 (centres unmarked) | 12.9 |
| CCOC(=O)C1=C(COC(=O)/C=C/c2ccc(Cl)cc2)NC(=O)NC1C (centres unmarked) | 15.6 |
| CCc1nc(CNC(=O)C2CCC(=O)N(CCc3ccc(OC)cc3)C2)cs1 (centres unmarked) | 10.3 |
| Cc1ccc(NC(=O)C(=O)NCCN2CCN(C(=S)Nc3ccccc3)CC2)cc1 | 12.2 |
| CC(=O)c1cccc(NC(=O)C(NC(C)C)c2ccccc2)c1 (centres unmarked) | 10 |
| N#Cc1ccc(NC(=O)CN2CCCC2)cc1Cl | 4.66 |
| O/N=C1\CCSc2ccc(F)cc21 | 11.8 |
| CCCc1nnc(SCC(=O)N2CCCCC2)n1CC1CCCO1 (centres unmarked) | 0.669 |
| O=C(c1cc(-c2ccc(Cl)cc2)on1)N1CCOCC1 | 5.72 |
| C/C(CC(=O)Nc1ccc2c(c1)OCCO2)=N\NC(=O)COc1ccccc1 | 5.16 |
| CC(NC(=O)c1noc2c1CCCCC2)c1ccccc1 (centres unmarked) | -2.41 |
| Cc1cccc(C)c1OCC1CNC(=O)O1 (centres unmarked) | 6.47 |
| COc1cc(NC(=O)CN2C(=O)C(c3ccccc3)=NC2(C)C)cc(OC)c1 | 14.2 |
| Cc1cccc(NC(=O)CNC(=O)c2ccc3c(c2)OCO3)n1 | 7.53 |
| O=C(N/N=C/c1cccs1)c1[nH]ncc1Br | 15.5 |
| Cc1ccc(-c2nnn(CC(=O)N(CC3CCCO3)C(C(=O)NCC3CCCO3)c3ccc(F)cc3)n2)o1 (centres unmarked) | 6.39 |
| Br.Nc1nc(-c2ccccc2)c(N=Nc2ccccc2Cl)s1 | 5.77 |
| CN(Cc1ccccc1)C(=O)CCc1ccccc1 | 13.8 |

| SMILES | hERG current change (%, negative = inhibition) at 1uM [%] |
| --- | --- |
| CCCSc1nsc(NC(=O)c2cccnc2OCC)n1 | 10.2 |
| Clc1ccccc1OCc1nn2c(-c3ccncc3)nnc2s1 | -7.59 |
| COC(=O)C1=C(c2cccc(C#N)c2)C[C@@H]2CC[C@H]1N2C(=O)NCc1cc(C)oc1C(F)(F)F | 15.5 |
| CCCc1nc2c(C)cc(C)cc2c(N)c1CC | -19.7 |
| COc1ccc(CCNC(=O)c2ccco2)cc1OC | 6.52 |
| COCCCNCC(O)COc1cccc2[nH]c(C)cc12 (centres unmarked) | 16.3 |
| Cc1cc([N+](=O)[O-])cc2c1NC(=O)C2(O)N1CCOCC1 (centres unmarked) | 14 |
| CCOC(=O)c1[nH]c2ccc(OC)cc2c1NC(=O)CCN1CCc2ccccc2C1 | -27.4 |
| CNc1cc(N2CCCC2)ccc1[N+](=O)[O-] | 2.03 |
| Cl.OC(CNCC1COc2ccccc2O1)COc1ccc(Cl)cc1 (centres unmarked) | -3.92 |
| Cn1c(CC(=O)NC(C)(C)CO)c(Sc2ccccc2)c2ccccc21 | 5.33 |
| Cc1ccc2nsnc2c1S(=O)(=O)Nc1cccc2nsnc12 | -0.485 |
| CC(C)(C)C(=O)Nc1ccc(N2CCCC2)cc1 | 0.159 |
| COc1ccc(Cl)cc1NC(=O)c1cc(-c2ccc(C)cc2O)n[nH]1 | 14.9 |
| CCN(CC)S(=O)(=O)c1ccc(N(C)Cc2cccnc2)nc1 | 4.93 |
| CC1(C)Cc2c(c(N3CCOCC3)nc3sc4c(=O)[nH]cnc4c23)CS1 | 7.64 |
| Cc1ccc(C(=O)N/N=C/c2ccc(-c3ccc(Br)cc3[N+](=O)[O-])o2)o1 | 5.65 |
| CCOC(=O)CNS(=O)(=O)c1ccc(C)cc1 | 1.26 |
| O=C(COc1ccccc1)Nc1ccccc1N1CCN(c2ccccc2)CC1 | 4.83 |
| COCCNC(=S)N(CCc1c(C)[nH]c2ccc(F)cc12)Cc1cccnc1 | 10.9 |

| SMILES | hERG current change (%, negative = inhibition) at 1uM [%] |
| --- | --- |
| CCN(CC(=O)NCc1ccc(Cl)cc1)C(=O)CSc1cc(C)ccc1C | 3.79 |
| COc1ccc(OC)c(NC(=O)COC(=O)c2ccc(-n3cnnn3)cc2)c1 | 5.6 |
| COc1ccc(N2C(=O)CC(=O)NC2=O)cc1 | 3.58 |
| CCOc1ccc(Br)c(C2(O)CC(C)N(C)CC2C)c1 (centres unmarked) | 4.43 |
| Nc1nc(SCC(=O)NC2CCCCC2)n[nH]1 | 15 |
| Cc1cc(C(=O)OCC(=O)Nc2cccc(S(=O)(=O)N(C)C)c2)c2ccccc2n1 | 11 |
| CCOC(=O)CSc1nnc(NC(=O)c2cccc([N+](=O)[O-])c2)s1 | 11.5 |
| COc1ccccc1Cc1nc2ccccc2n1S(=O)(=O)c1ccc(Cl)cc1 | 10.3 |
| COc1ccc(NC(=O)COC(=O)c2ccc(N3CCCC3=O)cc2)cc1OC | 17.1 |
| CN1CCN(CC(=O)Nc2c(C#N)cnn2-c2ccccc2)CC1 | 11.5 |
| COc1ccc(N2CCN(c3ccc(N4C(=O)COCC4=O)cc3[N+](=O)[O-])CC2)cc1 | 1.32 |
| CN(CC(=O)NC(=O)NC1CCCCC1)CC(=O)Nc1ccc(Cl)cc1 | 3.5 |
| CC(C)n1nc(C(=O)Nc2cccc(S(=O)(=O)NCc3ccco3)c2)c2ccccc2c1=O | 11.4 |
| CC1C(=O)Nc2ccc(S(=O)(=O)Nc3ccccc3Br)cc2NC1=O (centres unmarked) | 4.97 |
| O=C(CCNC(=O)N1CC(=O)Nc2ccccc21)NCCc1cccc(F)c1 | 11.9 |
| COC(=O)c1ccc(NC(=S)N2CCC(C(N)=O)CC2)cc1 | 14.4 |
| O=C(Nc1cccc([N+](=O)[O-])c1)Nc1cnccn1 | 12 |
| Cc1cc(C(=O)CSc2nc(N)cc(N)n2)c(C)n1-c1cccc(F)c1 | 6.26 |
| CCCC#Cc1ccc2c(c1)COc1c3ccccc3nn1-2 | 16.3 |

From publication PMC4336329 (PLoS ONE, 2015)
